The campaign covered roughly 46,000 compounds. About 60 (0.1%) were called active. Roughly 3% stayed inconclusive and do not appear here. Calls follow the shape of the dose curve; as a rule, active = well fitted inhibition curve with a large enough effect; inconclusive = small, poorly fitted or top-dose-only effect; inactive = no such curve, though single readings can be large or run the other way. Some of the results follow.

The experiment can be described thus: Primary qHTS assay for Inhibitors of ovarian cancer metastasis using an organotypic tumor microenvironment (TME) model. Also: nearly all actives have a fitted effect of over 65% in size.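 As to activity change, negative = inhibition: plate controls were DMSO wells for no effect and tomatine positive control wells for full effect.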 Particulars: SKOV3ip1-GFP adhesion/invasion on 3D omental model, fluorescence; series mostly up to 45.8 µM; activity change, negative = inhibition: at the top concentration. Summed up:
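Primary human omental fibroblast/mesothelial 3D culture pre-formed 48 h. SKOV3ip1-GFP cells added with compounds (0.36-46 umol/L), incubated 2 h RT/16 h 37 C, fixed; GFP cells quantified at 488/509 nm.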
For `CCC1CN(C(=O)N2CCC(C(=O)NCc3cccc(OC)c3OC)CC2)c2cc(C)ccc2O1` (configuration not stated), the compound was classed as inactive.
Regarding `CCOc1ccc(OCC)c(Nc2ccc3cc(S(=O)(=O)N4CCCC4)ccc3n2)c1`, the “activity change, negative = inhibition” value is inactive: 0.323%.
The same measure, in the same setting: the result for `CSc1cccc(NC(=O)c2cccc(N3CCCS3(=O)=O)c2)c1` reads inactive: 17.6%; that for `Cc1ccc(NC(=O)c2ccc3[nH]c(C)cc(=O)c3c2)cc1`, inactive: 17.7%.
Take `COc1ccc(NC(=O)CSc2ccc3nc(-c4ccccc4)cn3n2)c(OC)c1`: the “activity change, negative = inhibition” value was inactive: -20.4%.
For the compound `CCc1ccc(NC(=O)CCn2c(=O)c3cccn3c3ccccc32)cc1`, the compound was classed as inactive.
Regarding `Cc1ccccc1NC(=O)CSc1nc2ccc(NC(=O)c3cccs3)cc2s1`, the “activity change, negative = inhibition” value was inactive: -6.8%.
Same read-out and setting: the result for `COc1ccccc1CNC(=O)c1cc2sccc2n1Cc1ccc(Cl)cc1` reads inactive: -0.615%.
With `COc1cccc(-c2noc(C3CC(=O)N(c4ccc(F)cc4)C3)n2)c1OC` (configuration not stated), the compound was classed as inactive.
`CCOc1ccc(/C=C/C(=O)Nc2sc3c(c2C(=O)OC)C(C(=O)OC)CC3)cc1` (configuration not stated): the “activity change, negative = inhibition” value was inactive: 2.73%.
On to `COc1cc(NS(=O)(=O)c2cnc(N)nc2)cc(OC)c1`, for which the call was inactive.
Consider `Cc1nc(-c2ccc(S(=O)(=O)Nc3ccc(C#N)cc3)cc2)co1`, for which the “activity change, negative = inhibition” value is inactive: -5.97%.
Same read-out and setting: the figure for `COC(=O)c1ccc(NC(=O)CSc2nc(C)cc(C)c2C(=O)Nc2ccccc2)cc1` is inactive: 2.11%; for `CCOc1cc2c(c(F)c1OCC)C(=N)N(CC(=O)c1cc(N3CCOCC3)c(OC)c(C(C)(C)C)c1)C2` it is inactive: -27.2%.
Still for that read-out and setting: the figure for `CCCNS(=O)(=O)c1ccc2nc(NC(=O)c3ccc(F)cc3)sc2c1` is inactive: 21.8%.
The same measure, in the same setting: the result for `Cc1ccc2nc(N3CCN(c4ccccc4)CC3)c3nnnn3c2c1` reads inactive: 0.154%.
For the compound `CCc1cccc(-n2c(=O)c3cccnc3n2CC(=O)NCc2ccccc2)c1`, the “activity change, negative = inhibition” value was inactive: -5.15%.
Same read-out and setting: the figure for `CCn1nnc2cc(C(=O)Nc3ccc(Cl)cc3C)ccc21` is inactive: -5.32%.
On the same count and under the same terms, the result for `O=C(NCCC1=CCCCC1)c1ccc2c(c1)N(Cc1ccccc1F)C(=O)c1ccccc1S2=O` (configuration not stated) reads inactive: -8.48%.
As for `COc1ccc(N2CCN(C(=O)c3cccc(-n4c(C)nc5cccnc54)c3)CC2)cc1`, the “activity change, negative = inhibition” value is inactive: -5.75%.
`COc1cc2cc(CNc3ccccc3)c(=O)n(CC(=O)Nc3ccccc3)c2cc1OC`: the “activity change, negative = inhibition” value was inactive: -1.35%.
`CCc1cccc(NC(=O)c2cn3c4c(ccc(Cl)c4c2=O)OC(C)C3)c1` (configuration not stated): the “activity change, negative = inhibition” value was inactive: 7.58%.
For `CCOC(=O)c1cc(C)n(CC2CCC(C(=O)Nc3ccc(C(C)=O)cc3)CC2)c1C` (configuration not stated), the compound was called inactive.
Regarding `COc1cc(C(=O)OCc2cc(=O)n3nc(C4CCCCC4)sc3n2)cc(OC)c1OC`, the “activity change, negative = inhibition” value is inactive: -11.3%.
With `COc1cccc(NC(=O)C2CCN(S(=O)(=O)c3cccc4nonc34)CC2)c1`, the “activity change, negative = inhibition” value was inactive: 9.54%.
On to `CCN(CC)c1nc2c(-c3cccc(Br)c3)nnn2c2ccccc12`, for which the result was inactive.
Take `COc1ccc(CNC(=O)c2ccc(NC(=O)N3CC4CCCN4c4ccccc43)cc2)cc1` (configuration not stated): the “activity change, negative = inhibition” value was inactive: 2.38%.

These data come from PubChem BioAssay AID1963576 (National Center for Advancing Translational Sciences (NCATS), 2024).
